Measured values taken from the supplement of paper PMC4166925.
± gives the standard deviation of the averaged measurements. In all, about 33,000 sequences were measured (“E-score (dimensionless, -0.5 to 0.5)”: median about -0.046, highest 2% from about 0.36 on). Some of the results follow.

tested on: T1, SpTbr T-box DNA-binding domain (GST fusion); test: PBM E-score of 8-mer (E-score (dimensionless, -0.5 to 0.5)); Tbr is Tbrain of the sea star Patiria miniata (Pm) or the sea urchin Strongylocentrotus purpuratus (Sp); higher = stronger binding preference; most listed sequences are background and not binding sites; conditions: the construct has about 5 more residues each side
T1 sequence: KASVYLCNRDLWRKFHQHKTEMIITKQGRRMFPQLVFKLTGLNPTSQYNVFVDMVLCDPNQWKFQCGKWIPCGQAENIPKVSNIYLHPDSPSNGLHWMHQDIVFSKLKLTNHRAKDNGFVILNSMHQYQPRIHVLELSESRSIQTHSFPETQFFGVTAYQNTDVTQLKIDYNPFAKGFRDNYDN
Experimental: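 Universal protein-binding microarray (Agilent AMADID 016060, 60-bp probes with a 35-bp variable region) incubated with 200 nM GST-fused Strongylocentrotus purpuratus Tbr T-box DNA-binding domain (residues 362-554) in PBS pH 7.5. Scored for every ungapped 8-mer (given with its reverse complement) as E-score (range -0.5 to 0.5; >0.45 counts as bound) and Z-score of median probe intensity. Two replicate arrays (datasets 1 and 2).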
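Also: protein at 200 nM in PBS on universal double-stranded arrays.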

Sequence | PBM E-score of 8-mer
GGCTCGAA | 0.0162 ± 0.025
TCTACCCA | -0.151 ± 0.034
GAGGACCC | 0.0477 ± 0.098
CACGTAAG | 0.0351 ± 0.016
CCGCTGTC | 0.0178 ± 0.022
AAGCCTGC | -0.1361 ± 0.001
ATTGACAA | 0.298 ± 0.026
TATACCGA | -0.0854 ± 0.08
CCAGCAAA | -0.0864 ± 0.1
AAATTTGC | -0.00247 ± 0.095
AAATACTA | -0.0117 ± 0.0063
ACCTAGCG | 0.337 ± 0.022
ATAGCTGG | -0.126 ± 0.061
AGGGGCGG | -0.00628 ± 0.07
CAATAGGG | -0.2 ± 0.046
CGAGTCCC | -0.124 ± 0.022
AAACCCAC | -0.0359 ± 0.093
ACATTGTC | 0.236 ± 0.0082
ACGCAGAA | 0.0756 ± 0.0091
ACAATTGA | 0.0446 ± 0.019
GTTTAAGA | -0.164 ± 0.02
ACCGCAGC | 0.0284 ± 0.013
AGTTTGAA | -0.0917 ± 0.046
CTCTCAGC | 0.00924 ± 0.042
CCCGCTCG | 0.0358 ± 0.11

Sequence | PBM E-score of 8-mer
AGATTAAC | 0.0515 ± 0.0022
ATACCAGG | -0.1212 ± 0.00018
CCACGGGC | -0.227 ± 0.019
ATAGTACG | -0.111 ± 0.0061
CAATGATC | -0.0771 ± 0.0056
ATTGGACA | -0.108 ± 0.071
AAGCCAAG | -0.318 ± 0.074
CATCGATG | 0.00634 ± 0.096
CACACGGA | 0.201 ± 0.1
GGGCTACC | -0.221 ± 0.024
CTGCGACA | 0.198 ± 0.036
CTCAAGAG | -0.0815 ± 0.017
AGCTCTAA | -0.276 ± 0.025
AGCATGCA | -0.145 ± 0.036
CACTAATA | 0.068 ± 0.037
AGACACCT | 0.4345 ± 0.003
ATATTGTA | -0.141 ± 0.039
CCTTACCG | -0.147 ± 0.02
ATGTAGAC | -0.194 ± 0.086
ATAGTTAG | 0.012 ± 0.055
TAGGATGA | 0.116 ± 0.049
GTATTGTA | -0.15 ± 0.039
CGGTGGAC | -0.175 ± 0.008
GACATGGA | -0.123 ± 0.018
CCTGGAGA | -0.0243 ± 0.11

Sequence | PBM E-score of 8-mer
GATGTGAC | 0.273 ± 0.019
GATCGATC | -0.0756 ± 0.032
CACTCGAG | 0.0747 ± 0.019
CCTCCTCC | -0.123 ± 0.004
CAACTACA | 0.142 ± 0.06
CCCTGGGA | -0.167 ± 0.058
GCCAGCCA | -0.0864 ± 0.033
ATGTACCA | -0.258 ± 0.021
AGAAACCC | 0.057 ± 0.023
TAATGTAA | -0.212 ± 0.047
AGCAGCCA | -0.101 ± 0.06
GACTTGAA | -0.181 ± 0.041
CCCTGAAG | -0.15 ± 0.043
GCTTACAA | -0.0307 ± 0.02
AGCCTCGA | -0.0749 ± 0.047
AAAGGGAT | -0.294 ± 0.0053
AGAAAGCC | -0.211 ± 0.049
ACCCGCGG | 0.164 ± 0.025
CTCTCCTC | -0.139 ± 0.15
CGTTCTAC | -0.0107 ± 0.043
CAAGAAAA | -0.122 ± 0.065
TACCCGCA | -0.0672 ± 0.0097
CAATGGAG | -0.149 ± 0.047
AGTCACCG | -0.148 ± 0.03
CTCGGGCA | -0.181 ± 0.056

Sequence | PBM E-score of 8-mer
CTTAGTGA | 0.0752 ± 0.0019
AGACCATA | -0.113 ± 0.002
CGAGCCGA | -0.0664 ± 0.0047
ATGACTCC | -0.172 ± 0.072
AAGGGCCG | -0.27 ± 0.034
GGTACCCA | 0.0442 ± 0.038
AACATGCC | -0.172 ± 0.016
CCGCTACA | 0.0727 ± 0.039
ATTACCAA | 0.0168 ± 0.07
GCAAGTCC | 0.0334 ± 0.02
ATCTGATC | -0.0836 ± 0.057
GGTGAATA | 0.13 ± 0.016
AAACAGAC | -0.0932 ± 0.079
ACGGACTA | 0.0103 ± 0.061
CCGTCGCC | 0.247 ± 0.078
CGCTTAAG | 0.04 ± 0.03
TAACCGAA | -0.212 ± 0.034
ATCAAAAT | -0.192 ± 0.028
GGTAGGAA | -0.287 ± 0.024
AACGTTCA | 0.0606 ± 0.0016
AGGGCATC | -0.0335 ± 0.013
CATGCGTA | -0.199 ± 0.0048
CCAAGAAA | -0.0546 ± 0.07
TGCACGCA | -0.0378 ± 0.0076
AATACTAA | -0.0398 ± 0.024

Sequence | PBM E-score of 8-mer
GGAACCAC | -0.206 ± 0.0052
CATCCAGG | 0.006 ± 0.007
ATATACTC | -0.215 ± 0.0023
CACTATAA | -0.0315 ± 0.037
AGCGTATA | -0.0764 ± 0.00086
AAGCCGGC | -0.125 ± 0.091
CCAAGGTC | -0.249 ± 0.031
GCGGTCTA | -0.21 ± 0.057
AGCAATTG | -0.109 ± 0.032
ACGCAGCT | 0.086 ± 0.0018
GTGACCTA | 0.0756 ± 0.073
AAATCCGA | -0.16 ± 0.08
CGTGGTAG | 0.0558 ± 0.012
CGCTGATC | 0.132 ± 0.11
CCTTGTAC | -0.0571 ± 0.037
CCCCATAC | -0.141 ± 0.035
AGCTCAGG | -0.176 ± 0.0068
AGTTTTGG | -0.158 ± 0.012
CCAACGGA | 0.107 ± 0.0063
AACGATCT | 0.0231 ± 0.0018
ATACAGGA | -0.176 ± 0.0052
GCTACTCA | -0.0431 ± 0.035
AGCGCACT | -0.0424 ± 0.0093
ACCATCGG | -0.0356 ± 0.079
ACCGCGTA | -0.0401 ± 0.0057

Sequence | PBM E-score of 8-mer
CTCAACTC | -0.174 ± 0.013
AGAAACTC | 0.0439 ± 0.00099
CCGGTCAC | 0.229 ± 0.016
AGGGACCA | -0.237 ± 0.064
GCTCCGCC | -0.183 ± 0.058
AGTCTACC | -0.125 ± 0.026
ACTGTTAG | 0.195 ± 0.048
ACGTTCGG | 0.0713 ± 0.038
GCACGAGC | -0.0218 ± 0.058
GCATAGAC | -0.117 ± 0.083
AGAAACAT | -0.207 ± 0.026
GACACCCC | 0.405 ± 0.026
AGGACAGC | -0.18 ± 0.027
CACTAACC | 0.15 ± 0.026
ACAAGTGA | 0.243 ± 0.07
CGAAGTGA | 0.362 ± 0.0065
GCGTACTA | -0.354 ± 0.026
ATGAGCAA | -0.127 ± 0.037
AAGACGAT | -0.0524 ± 0.029
AGCGCGCC | 0.0478 ± 0.066
AATCGATG | -0.0812 ± 0.0092
AAAGGTAC | -0.0923 ± 0.05
TCCCCCGA | -0.133 ± 0.033
CATGTCAC | 0.253 ± 0.025
ATACTGAG | -0.115 ± 0.039

Sequence | PBM E-score of 8-mer
ATGCGAAG | 0.1525 ± 0.0015
CCAAAATA | -0.241 ± 0.017
AGGTTGCA | 0.134 ± 0.019
ATCCGAGG | -0.1176 ± 0.0009
GATGGTTA | -0.0918 ± 0.008
CAGACAAG | -0.134 ± 0.015
AAATCGAA | 0.0241 ± 0.066
CAGGCCAG | -0.257 ± 0.02
CCAGGAGG | -0.0654 ± 0.055
CAACAGAA | -0.0866 ± 0.099
ATTAGAAG | -0.13 ± 0.0082
GGGGGAAA | -0.205 ± 0.097
CTAAATGC | 0.0157 ± 0.022
AAAGGGAA | -0.252 ± 0.016
AACGAATG | 0.0939 ± 0.036
CAGTATAC | -0.121 ± 0.049
CAAATACG | -0.087 ± 0.022
CGGGGTTC | -0.0775 ± 0.057
CAAAGAGC | -0.0512 ± 0.053
GGAGCCCC | -0.206 ± 0.022
CTTTTCAA | -0.0414 ± 0.11
ATTCAGCA | -0.107 ± 0.013
